# Reference: PMC4336329 (PLoS ONE, 2015)
# Out of some 310,000 compounds screened, about 2,200 (0.71%) showed an effect of 50% or more. Effects have a minus sign here. Some of the results follow.
# Target: human ether-à-go-go-related gene (hERG) potassium channel (human, UniProt Q12809)
# Experiment: primary screen, population patch clamp on CHO cells stably expressing hERG
# Chain of human ether-à-go-go-related gene (hERG) potassium channel (Q12809 whole entry, looked up): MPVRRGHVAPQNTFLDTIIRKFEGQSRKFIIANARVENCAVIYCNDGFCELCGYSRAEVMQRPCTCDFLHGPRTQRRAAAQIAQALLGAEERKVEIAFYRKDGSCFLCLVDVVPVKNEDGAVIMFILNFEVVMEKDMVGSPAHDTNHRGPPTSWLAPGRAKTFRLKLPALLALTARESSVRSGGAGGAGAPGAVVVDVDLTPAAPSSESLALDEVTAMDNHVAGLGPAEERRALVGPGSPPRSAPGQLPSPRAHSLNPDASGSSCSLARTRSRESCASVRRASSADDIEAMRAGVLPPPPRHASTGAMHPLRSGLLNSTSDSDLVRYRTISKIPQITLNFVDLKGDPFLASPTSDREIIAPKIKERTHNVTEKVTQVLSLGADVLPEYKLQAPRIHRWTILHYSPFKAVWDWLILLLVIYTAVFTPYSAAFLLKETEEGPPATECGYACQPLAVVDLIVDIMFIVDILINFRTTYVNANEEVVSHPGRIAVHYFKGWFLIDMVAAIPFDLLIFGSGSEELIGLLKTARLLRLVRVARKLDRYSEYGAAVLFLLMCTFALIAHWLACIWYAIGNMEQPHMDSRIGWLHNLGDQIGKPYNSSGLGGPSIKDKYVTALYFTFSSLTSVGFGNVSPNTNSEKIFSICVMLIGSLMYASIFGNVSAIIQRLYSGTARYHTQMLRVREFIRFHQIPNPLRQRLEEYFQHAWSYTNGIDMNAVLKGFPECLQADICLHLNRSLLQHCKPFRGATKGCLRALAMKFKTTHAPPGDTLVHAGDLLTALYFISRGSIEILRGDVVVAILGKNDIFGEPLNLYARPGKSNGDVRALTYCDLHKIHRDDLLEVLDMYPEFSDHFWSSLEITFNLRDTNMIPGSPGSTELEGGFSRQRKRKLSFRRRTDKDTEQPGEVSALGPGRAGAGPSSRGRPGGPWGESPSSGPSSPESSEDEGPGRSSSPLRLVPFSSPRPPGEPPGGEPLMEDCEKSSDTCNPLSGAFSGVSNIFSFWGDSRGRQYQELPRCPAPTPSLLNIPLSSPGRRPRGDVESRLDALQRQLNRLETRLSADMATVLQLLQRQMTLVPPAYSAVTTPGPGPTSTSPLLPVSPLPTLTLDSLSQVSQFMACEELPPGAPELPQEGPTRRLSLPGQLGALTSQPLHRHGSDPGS
row,Structure (SMILES),"hERG current change (%, negative = inhibition) at 1uM [%]"
1,CC(=O)/C(C(=N)N1CCN(Cc2ccccc2)CC1)=C(\C)O,12.1
2,CCn1cc(S(=O)(=O)NC2CCCCC2)cn1,-4.57
3,O=C(COC(=O)c1cc(S(=O)(=O)N2CCCCC2)ccc1N1CCOCC1)c1ccc(Cl)cc1,9.28
4,Cc1ccc(CNC(=O)CCNC(=O)c2ccco2)cc1,10.5
5,COc1ccc(NC2=C(C)C(=O)CC2)cc1,12.9
6,CCCC(C(=O)N(C)CC(=O)Nc1ccc(N2CCOCC2)cc1)c1ccccc1 (centres unmarked),-0.231
7,O=C(COC(=O)c1nc(Cl)ccc1Cl)NC1CCCCCC1,-4
8,O=C(c1cc(N2CCCCC2)nc2ccccc12)N1CCOCC1,2.08
9,Cc1cccc(NC(=O)c2ccc([N+](=O)[O-])cc2Cl)n1,1.34
10,Cc1cc2c(cc1C)N(C(=O)CN1C(=O)c3ccccc3C1=O)C(C)(C)c1ssc(=S)c1-2,3.55
11,COc1cccc(-c2cc(C(=O)Nc3cc(C)on3)no2)c1,1.21
12,CC(=O)c1cc2c(cc1N/C(=N/S(=O)(=O)c1ccccc1)c1ccc(Cl)cc1)OCO2,0.562
13,Cc1cc(NC(=O)c2ccc(S(=O)(=O)N3CCc4ccccc43)cc2)no1,7.02
14,COc1ccc(N(CCCN2C(=O)c3cccc4cccc(c34)C2=O)C(=O)c2ccncc2)cc1,9.23
15,CC1(C)OC(=O)N(c2ccccn2)C1(C)O (centres unmarked),14.4
16,CC(c1nccs1)N(C)C(=O)c1ccc(OC2CCN(CCc3ccccc3)CC2)cc1 (centres unmarked),-23.8
17,O=C(CN1CCCCC1)Nc1scc2c1c(=O)oc1ccccc12,13.3
18,Oc1ccccc1Nc1nc(-c2ccccc2O)nc2ccccc12,11.3
19,COc1ccc(CNC(=O)CN(C(=O)c2csnn2)c2cccc(F)c2)cc1,7.2
20,CCOC(=O)C(Sc1nnc(-c2ccncc2)o1)C(C)=O (centres unmarked),22.1
21,CCN1CCN(C(=O)CCCCCn2c(=O)[nH]c3cc(C(=O)OC)ccc3c2=O)CC1,12.4
22,CN(C)C(CN1C(=O)C2CC=CCC2C1=O)c1cn(C)c2ccccc12.Cl (centres unmarked),9.01

row,Structure (SMILES),"hERG current change (%, negative = inhibition) at 1uM [%]"
1,Cc1cccn2c(=O)c(/C=C(\C#N)C(=O)NCc3ccco3)c(N3CCCC(C)C3)nc12 (centres unmarked),-3.62
2,C/C(=N\NC(=O)c1cc(Cl)ccc1O)c1ccc(Br)s1,7.57
3,Nn1c(Cc2cccc3ccccc23)n[nH]c1=S,15.2
4,Cc1noc(NS(=O)(=O)c2ccc(NC(=O)CSc3nc4c(cc3C#N)CCC4)cc2)c1C,8.19
5,CCCCOC(=O)c1nc[nH]c1C(=O)OCCCC,11.4
6,Cc1cc(C)cc(C(=O)N/N=C/c2ccoc2)c1,7.53
7,O=C(CCN1C(=O)C2C3C=CC(C3)C2C1=O)Nc1ccccc1 (centres unmarked),20.3
8,COc1cc(C(=O)OCC(=O)N2CCCCC2C)cc(NC(=O)c2cccs2)c1OC (centres unmarked),11.3
9,OCC12COC(c3ccccc3)N1C(c1ccccc1)OC2 (centres unmarked),19.6
10,O=C(NC(=O)N1CCN(c2ccccc2F)CC1)c1ccccc1,14
11,CCC1C(C#N)=C(SCC(N)=O)NC2=C1C(=O)CC(C)(C)C2 (centres unmarked),10.6
12,CN1CCN(c2ccc(N)cc2)CC1,1.94
13,Cc1cc(NC(=O)c2cccs2)no1,12.4
14,S=C(NCCCc1ccccc1)Nc1ccc(Cl)cc1,26.3
15,Cc1nc2ccc(NC(=S)N3CCN(c4ccccn4)CC3)cc2nc1C,-0.0707
16,COc1ccc(C[C@H]2CN3C(=NC[C@H]3Cc3ccccc3)N2CCNC(=O)CCC2CCCCC2)cc1,-49.2
17,CC1(c2nnc(Cc3ccccc3)o2)CC(c2ccc(OC(F)(F)F)cc2)=NO1 (centres unmarked),-2.18
18,COc1ccc(NC(=O)c2ccco2)c(NC(=O)c2ccc([N+](=O)[O-])cc2)c1,-7.99
19,COc1cc(/C=C2\SC(=S)N(NS(=O)(=O)c3ccc(C)cc3)C2=O)ccc1O,13
20,COc1ccc([C@H]2CC(=O)C=C(c3ccc(OC)nc3)C2)cc1,15.7
21,CC1=CC(c2ccccc2)n2nc(N3C(=O)CCC3=O)nc2N1.O=C(O)CCC(=O)O (centres unmarked),8.85
22,CCOC(=O)c1sc(=S)n(-c2ccc(F)c(F)c2)c1N,12.4
